# According to publication PMC12136788:
# Changes are numbered by the printed parent chain. This is one part of the list.
# T1: UNK ZnF1-3 (human, UniProt Q9C0B0 31-174)
# T1 sequence: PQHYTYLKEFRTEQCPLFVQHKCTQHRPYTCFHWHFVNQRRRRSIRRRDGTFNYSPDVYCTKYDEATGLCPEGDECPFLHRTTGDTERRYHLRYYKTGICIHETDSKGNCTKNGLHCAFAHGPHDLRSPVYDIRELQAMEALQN
# B1: chr4:155193719:155193720:+_ENSMUSG00000029068_ENSMUST00000139066|mus_mus|motif|central (ssRNA)
# RNA: GGGAGUUCUACAGUCCGACGAUCAGACAAAAGCAACAAAACACUAAAAGUGGCAUCAAACUAAGUACACUUAAAAAUGCGGUAAUACUUUAGAUGAUAUGUAAGUACAAAACUUCACAUUUUUAGAAAAGUUAAAGGUCAUUUCAACAGAGGAUUGAGCAUCA
# B2: chr3:133545784:133545785:-_ENSG00000154917_ENST00000285208|hu_hu|FALSE|FALSE (ssRNA)
# RNA: GGGAGUUCUACAGUCCGACGAUCGCACAUGUAUCUCCGUGAGGAUGUGUUUGUGGAAGGUGUAUACACAAGUCUAUCUCUAUAUAUAAUUAUGUACACACAUAUAAAAACUAAACACAUGACAUCUGAAACACGUUCAAACAUCAACAGAGGAUUGAGCAUCA
# B3: chr4:57314706:57314707:+_ENSG00000128050_ENST00000264221|hu_mus|hu_hu_hu_mus_True|88_88 (ssRNA)
# RNA: GGGAGUUCUACAGUCCGACGAUCCAGAAUUUCAAAAAUAGCUUGUGUAGCAUGACUCAUGAUGUCCACUUCAGUCUGCCCUAUAACAAGGCCAGCAAAACAGAAUUUUGCAGCAAUGAGUUGCUCCUCAGACCACUGUGGAUCCAACAGAGGAUUGAGCAUCA
# B4: 160287392_160287512_2467_CDS_ENSG00000123636_ENST00000355831|human|control|control (ssRNA)
# RNA: GGGAGUUCUACAGUCCGACGAUCAAGUGUGGAAGAAGAUGUACCAAGAAAAGCAGGUGACUGGGAUUCAGAACAUAAGGCAGCAGGAGCAGAGCCUGGGGCUUUUGCUAUGUGGAGGUUACGAGGUGUUGAGUGACCUGUGAGCAACAGAGGAUUGAGCAUCA
# B5: 8395770_8396156_4501_CDS_ENSG00000133026_ENST00000269243|human|control|control (ssRNA)
# RNA: GGGAGUUCUACAGUCCGACGAUCGGCCCGGUCCCGCUCUUCGGCAUAGCGAGCAGAGAUGCUCUUCUCUUCUGCUAACAGCUGGUCAAACUUCUUCUGCUUCUUCUCCAAGUUGGAGGCGACCUGGCGCUGGUGGUCCAGGUCCAACAGAGGAUUGAGCAUCA
# B6: chr7:40027299:40027300:+_ENSG00000065883_ENST00000340829|hu_hu|motif|central (ssRNA)
# RNA: GGGAGUUCUACAGUCCGACGAUCAUUCUUGUUCAAUUCAGCUGCCAGGCUACUCUUCAGAGUUAGUGUGCUAGGAGAAAUACGGGAAUGACGACUUCUGGAUCUAGACAAUCUGUGCCUGCUACGAGAUCUUGAAUGCCUAGACAACAGAGGAUUGAGCAUCA
# B7: chr1:26449037:26449038:+_ENSG00000175087_ENST00000374271|hu_hu|FALSE|FALSE (ssRNA)
# RNA: GGGAGUUCUACAGUCCGACGAUCAUUUGCAAAUAAUAUGUGUCACGUUUCCCAGCUGCUAUCUUUAAAUGCAAUUUGUACUAAUCUGAGUUCUAGUUCAAAAGCAUCUGGACGAUCCUGAGGGUUUGCAGCCAGCAUUUCCUUCAACAGAGGAUUGAGCAUCA
# B8: chr20:57015987:57015988:+_ENSG00000124164_ENST00000520497|hu_mus|FALSE|FALSE (ssRNA)
# RNA: GGGAGUUCUACAGUCCGACGAUCUUCCAUCACCUUCUUUACUUCUGUGUCAUCGAGGGGCGAUGUCAGGGACUUUGCGGCUGCCGGUGCUUCUGUCUUGGAUGCACUCGUAGGUAUGAUUUUAUUUAUUUCUACAUCAUGUGGCAACAGAGGAUUGAGCAUCA
# B9: chr1:93299114:93299115:+_ENSG00000122406_ENST00000370321|hu_mus|FALSE|FALSE (ssRNA)
# RNA: GGGAGUUCUACAGUCCGACGAUCCUGGAUCACCAAUCGUUUUCGAGCAUAGUAGUCAGUUUUACCCUCUCGCCGCCUUCGAAAUCUCACUUGGUAUCUUUUAAAGUAGGCCUUAUUCUUGACAACUUUCACAAACCCCAUCCUCAACAGAGGAUUGAGCAUCA
# B10: chr12:42180722:42180723:-_ENSMUSG00000036295_ENSMUST00000043884|mus_hu|mus_mus_mus_hu_True|38_68 (ssRNA)
# RNA: GGGAGUUCUACAGUCCGACGAUCCUGUAGGAGAAGAAUCUGUGUGUUAGCUGGCAAUCUGGCUGGGAAGUUUAAAAGACCUAAAUCAUUACAAUCCACUGUCGAUGCUUCCAUAUAAAUGGAUCUGGGUGUAAACCAAGGCCUCAACAGAGGAUUGAGCAUCA
# B11: chr17:17163782:17163783:-_ENSG00000141030_ENST00000268717|hu_hu|motif|central (ssRNA)
# RNA: GGGAGUUCUACAGUCCGACGAUCGAGUUCUGAGGGGUUGUUGGUUGAAUACACUUGUGCUAACUCGUGGUAUGCAUUGCGGAGAGGCUUAAUGAAUCUACCCACAAUUUGAGAUGUAUAUUUUGGUAGCUGUUGUACUUUGCCCAACAGAGGAUUGAGCAUCA
# B12: chr3:176740097:176740098:-_ENSG00000177565_ENST00000430069|hu_mus|hu_hu_hu_mus_True|1_78 (ssRNA)
# RNA: GGGAGUUCUACAGUCCGACGAUCUGUUUUGUAUACCACAAAAGGAGGCACUUUCAGUAUCUGUAAAAGGUGUUUAGUCCUAAAACAUACUCACCUAGAGGAUAACUCAGGAAAACAAUCUGUUACACUCUAAGACCUUAGGAACAACAGAGGAUUGAGCAUCA
# B13: chr4:57314706:57314707:+_ENSG00000128050_ENST00000264221|hu_mus|hu_hu_hu_mus_True|18_98 (ssRNA)
# RNA: B3 RNA with U42C, A48G, G117C, U120C, C123U
# B14: chr1:163112212:163112213:-_ENSG00000143248_ENST00000313961|hu_hu|hu_hu_hu_mus_False|58_58 (ssRNA)
# RNA: GGGAGUUCUACAGUCCGACGAUCUUUUAUUAUCAGUAAGAGUGAGUUACAUACUAGGCAAAGUAUUGGAUACAAUAUUCUAAAGAUAAACACUAUUGGUCCAGAAUUUAAAACUUUAUGAGCGAAGUGCUGGCACAGGACUUACAACAGAGGAUUGAGCAUCA
# B15: chr7:90019092:90019093:+_ENSMUSG00000057706_ENSMUST00000082237|mus_hu|FALSE|FALSE (ssRNA)
# RNA: GGGAGUUCUACAGUCCGACGAUCAACACACUAAACAGUCCACACAUCCCAUAGCACUACUAUCAUCUUCAUCAUAAUUAUUACUGUUCAUUUUUUCCUACUUUAAGAAAAUGGAAAACUUGUGGGGUUUUCUUCUUUUGGAAGCAACAGAGGAUUGAGCAUCA
# B16: chr2:9728443:9728444:-_ENSG00000134308_ENST00000238081|hu_hu|FALSE|FALSE (ssRNA)
# RNA: GGGAGUUCUACAGUCCGACGAUCUUGCAUCUCUUUCUUGCUUAUAUCAAAUGCCUCUUGGUAAGCUCCUUGGGAAUUAUCUAUCGUUUGUUUUCGAUCAUCACCACACGCAACUUCAGCAAGGUACCGGAAGUAAUCACCCUUCAACAGAGGAUUGAGCAUCA
# B17: chr9:104153060:104153061:-_ENSG00000136897_ENST00000374865|hu_hu|FALSE|FALSE (ssRNA)
# RNA: GGGAGUUCUACAGUCCGACGAUCGUAAGAUUCCAAACGACUCUGGAGAUCUUCAGGUGGUGUGUAUGCUCGGCUUCGUAAAGGUGGACACACUAGGAUAGGUUCCUUUUUCUCUUCUACUGUCUCAACAACCACUGGCUCUUUCAACAGAGGAUUGAGCAUCA
# B18: chr5:67718940:67718941:+_ENSMUSG00000029221_ENSMUST00000113676|mus_mus|FALSE|FALSE (ssRNA)
# RNA: GGGAGUUCUACAGUCCGACGAUCAGUAAAGGACUCGGUGUCAUCGUGGGGACUUCGCCGCCUGAUUUUUCGAAGUUGUUCUAAAUCACUGGACUUAAGGCAGAACUCGUUUAUUGCUCUCACUCCAGUGAUGAAAUUAUUCUUCAACAGAGGAUUGAGCAUCA
# B19: chr2:61719535:61719536:-_ENSG00000082898_ENST00000401558|hu_mus|motif|central (ssRNA)
# RNA: GGGAGUUCUACAGUCCGACGAUCGUUUACUACUGUCUUCAAAAAUUUCCAGUGUGCUCUCAAAAAUCUUGGGUAUUGACCGGCGGUGUACAUGAUAUUCGAUGCAAUAAUAGCUUUAUUAUCUUUGCCUCUUUUCUGCUCACACAACAGAGGAUUGAGCAUCA
# B20: chr1:46159212:46159213:+_ENSG00000159596_ENST00000372025|hu_mus|hu_hu_hu_mus_True|38_38 (ssRNA)
# RNA: GGGAGUUCUACAGUCCGACGAUCUCUGAUCCCUCCCAAGAAAGCUAGGAAACCGGCUCCAUAAGCCAUCUGAGUGAAAGCUAGGACGGGGAUAUAAGUUUUUGUCAUUACCAUGAGAAGUGGGGGAGCAGUAAAGGGGAUUAACAACAGAGGAUUGAGCAUCA
# B21: 73151538_73161298_714_CDS_ENSMUSG00000022607_ENSMUST00000110036|mouse|control|control (ssRNA)
# RNA: GGGAGUUCUACAGUCCGACGAUCGUCACUCUUCACCUGUUGAUAGAAGAAAUUCAAUGUUGGCUUAUCUUCAGUAAACUGGUUUAGAAAUCCUUUUGGCAAGUAACGAAUUCUCAACUCAUAUUUCCACUCCUCUGGUGGGUGCAACAGAGGAUUGAGCAUCA
# B22: chr10:69676056:69676057:+_ENSG00000096717_ENST00000212015|hu_hu|motif|central (ssRNA)
# RNA: GGGAGUUCUACAGUCCGACGAUCAUGGAAAAUGUAACGAUUUGGUGGCAAAAACAGAUACUGAUUACCAUCAAGCCGCCGGCGGAUCUGCUCCUUUGCCACUCUAUUAGGCCAGCAUUUUCUCACUGUUCCAGCCACUGAAGUCAACAGAGGAUUGAGCAUCA
# Biological target: T1, UNK ZnF1-3
# Test: nsRBNS (natural sequence RNA bind-n-seq); RBNS binding buffer (assumed for nsRBNS): 25 mM Tris pH 7.5, 150 mM KCl, 3 mM MgCl2, 0.01% Triton X-100, 500 ug/ml BSA, 20 U/ml SUPERase-In, 4 C; UNK is unkempt and MSI1 is Musashi-1; names of the RNAs are library labels; protein concentration not given here; high values mean tight binding
row,Binder,binding signal [enrichment R]
1,B1,1.09
2,B2,0.913
3,B3,0.931
4,B4,1.83
5,B5,0.59
6,B6,0.714
7,B7,1.1
8,B8,0.64
9,B9,1.03
10,B10,1.43
11,B11,0.713
12,B12,0.762
13,B13,1.12
14,B14,1.35
15,B15,1.36
16,B16,0.913
17,B17,0.604
18,B18,0.528
19,B19,0.801
20,B20,1.46
21,B21,0.737
22,B22,0.835
